Test results taken from PubChem BioAssay AID686971 (National Center for Advancing Translational Sciences (NCATS), 2013).
Hit rate of the full screen: of about 360,000 compounds, about 7,500 (2.1%) were called active. Inconclusive results, whose numbers are uncertain, are shown with a selection of clear calls. The call rests on the fitted dose curve; in most records, active means well fitted cell-killing curve with a large enough effect; inconclusive means small, poorly fitted or top-dose-only effect, or effect the other way, or another doubt; inactive means no such curve, though single readings can be large or run the other way. Potencies of inconclusive entries are left out as doubtful fits.

Experiment: qHTS for induction of synthetic lethality in tumor cells producing 2HG: qHTS for the HT-1080-IDH1KD cell line
Conditions: HT-1080 IDH1 knockdown viability, ATP luminescence, 48 h; series mostly up to 46.1 µM
Summary of the method: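 CellTiter-Glo luminescence after 48 h compound exposure at 37 degrees C of IDH1-knockdown HT-1080 cells in 5% FBS RPMI. %Activity scaled between DMSO wells and cell-free media wells, with curves fitted and assigned curve classes.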
Potency means the concentration at half of the fitted maximal effect; tags describe the fitted curve by direction and shape.

Row | SMILES | Potency
1 | CCOC(=O)N1CCN(c2c(NCc3cccs3)c(=O)c2=O)CC1 | inconclusive [cytotoxic, single point]
2 | CCOc1ccc(Cl)cc1-c1cc(C(=O)Nc2cc(OC)c(OC)c(OC)c2)[nH]n1 | inconclusive [cytotoxic, single point]
3 | COc1cc(NC(=O)c2cc([N+](=O)[O-])ccc2Br)ccc1NC(=O)c1ccco1 | inconclusive [cytotoxic, single point]
4 | CCOC(=O)C1(C)/C(=N/Nc2ccccc2)C(=O)C(=O)N1c1ccccc1 (stereo not given) | inactive
5 | CSc1ccc(CN2CCC2(C)C(=O)NC2CCc3ccccc32)cc1 (stereo not given) | inconclusive [cytotoxic, single point]
6 | O=C(NCc1ccco1)c1ccc2[nH]c(=O)c(=O)[nH]c2c1 | inactive
7 | CCOc1ccc(NS(=O)(=O)c2csc(C(N)=O)c2)cc1 | inactive
8 | COC(=O)c1ccc(/C=C(\C#N)C(=O)NC(C)c2ccccc2)cc1 (stereo not given) | inconclusive [cytotoxic, single point]
9 | CCC(C(=O)NC1CC1)n1nc(C)c2c(C)n(-c3ccc(C)cc3)nc2c1=O (stereo not given) | inactive
10 | COc1cc(C(=O)N2CCN(c3ccccc3)CC2)c2ccccc2n1 | active: 0.517 µM
11 | CCCNC(=O)c1cc(-c2ccco2)on1 | inconclusive [cytotoxic, partial curve]
12 | O=C(COc1ncnc2ccccc12)Nc1ccccc1[N+](=O)[O-] | inactive
13 | C[C@H]1CN([C@@H](C)CO)C(=O)CCCn2nncc2CO[C@@H]1CN(C)C(=O)Nc1cccc2ccccc12 | inactive
14 | CC(=O)Nc1ccc(S(=O)(=O)N2CCC(Oc3ccc(-n4cnnn4)cc3)CC2)cc1 | inactive
15 | Clc1ccc2c(N/N=C/c3cccnc3)ccnc2c1 | inconclusive [cytotoxic, single point]
16 | COC(=O)c1cc2c(ccn2-c2ccc(F)cc2)n1Cc1cccc(OC)c1 | inconclusive [cytotoxic, single point]
17 | CC(=O)Oc1ccccc1-c1nc(C)nc(N(C)C(C)=O)n1 | inconclusive [cytotoxic, single point]
18 | COc1ccccc1/C=N/NC(=O)c1cc2c(OC)c(OC)ccc2[nH]1 | active: 4.11 µM
19 | CN(C)S(=O)(=O)c1cccc(NC(=O)CCc2nc3sc4c(c3c(=O)[nH]2)CCCC4)c1 | inactive
20 | Cc1cccc2c(=O)c(C(=O)NCc3cccs3)c[nH]c12 | inconclusive [cytotoxic, single point]
21 | Fc1ccc(-c2nnc3sc(C4COc5ccccc5O4)nn23)cc1 (stereo not given) | inconclusive [cytotoxic, single point]
22 | CCOC(=O)c1ccc(N2CSC3=C(C#N)C(c4cccs4)CC(=O)N3C2)cc1 (stereo not given) | inconclusive [cytotoxic, partial curve]
23 | CC(=O)c1c(C)n(-c2ccccc2Br)c2ccc(O)cc12 | inconclusive [cytotoxic, single point]
24 | CCN1C(=O)c2ccccc2Sc2ccc(C(=O)NCCCN3CCCCC3)cc21 | inconclusive [cytotoxic, single point]
25 | O=C1[C@@H](Oc2ccccc2)[C@@H](c2ccncc2)N1c1ccccc1 | active: 20.6 µM

Row | SMILES | Potency
26 | CC(=O)Nc1ccc(S(=O)(=O)N[C@@H](C)C(=O)N2CCN(C/C=C/c3ccccc3)CC2)cc1 | inactive
27 | COc1cccc(-c2cnc(C(O)c3cc(Cl)cc(Cl)c3)[nH]2)c1 (stereo not given) | inconclusive [cytotoxic, single point]
28 | COc1ccc(-c2[nH]ncc2CN2CCC(O)(c3ccc(Cl)cc3)CC2)cc1 | inconclusive [cytotoxic, full curve]
29 | Cc1cccc2nc3ccccc3cc12 | inactive
30 | O=C(/C=C/Sc1ccccc1)c1ccccc1 | active: 5.62 µM
31 | COC(=O)C1=C(CSc2nc3ccccc3o2)NC(=O)NC1c1cc(C)ccc1C (stereo not given) | inconclusive [cytotoxic, single point]
32 | Cc1cc(C)n2nc(C(=O)OCC(=O)N(C)C3CCCCC3)nc2n1 | inactive
33 | O=C(COc1ccccc1)N/N=C/c1ccc([N+](=O)[O-])o1 | inconclusive [cytotoxic, single point]
34 | CCOc1cc(NC(=O)C2CC2)c(OCC)cc1NC(=O)c1ccccc1OCC | inconclusive [cytotoxic, single point]
35 | Oc1ccc(CN2CCCc3ccccc32)c2cccnc12 | inconclusive [cytotoxic, single point]
36 | COc1ccc(C2=CC(=O)C[C@H](c3ccc4c(c3)OCO4)C2)cn1 | inactive
37 | COc1ccc(CCc2nnc(CCC(=O)N(C)Cc3ccnc4ccccc34)o2)cc1 | active: 20.6 µM
38 | CC(C)CC(N)c1csc(Nc2ccccn2)n1 (stereo not given) | inconclusive [cytotoxic, partial curve, poor fit]
39 | Cc1cccc(NC(=O)/C=C/c2ccc3c(c2)OCO3)n1 | inconclusive [cytotoxic, partial curve, poor fit]
40 | CCCCCCc1cc2cc(C(=O)Nc3ccccc3OC)c(=O)oc2cc1O | inactive
41 | O=C1NC(c2cccc(OCc3ccccc3)c2)Nc2ccccc21 (stereo not given) | active: 0.58 µM
42 | S=C1NC[C@H](CC2CCCCC2)N1CC1CCCCC1 | inconclusive [cytotoxic, single point]
43 | CC1=CN2C(=N)/C(=C/c3ccc([N+](=O)[O-])o3)C(=O)N=C2S1 | inconclusive [cytotoxic, single point]
44 | Cc1cc2cc(C=C(C#N)C#N)c(Cl)nc2cc1C | inconclusive [cytotoxic, single point]
45 | CCCN(CCC)c1nc(N(CCC)CCC)[nH]c(=O)n1 | inactive
46 | COc1ccc(-c2cc(C)no2)cc1S(=O)(=O)NCCCN1CCCCCC1 | inactive
47 | CCOC(=O)C(CC)/C(C)=N\NC(=O)c1ccccc1O (stereo not given) | active: 16.4 µM
48 | CCOc1ccc(NC(=O)Nc2ccc3nccnc3c2)cc1 | inactive
49 | C[C@@H]1CN([C@H](C)CO)C(=O)c2cc(NS(=O)(=O)c3cccs3)ccc2O[C@H]1CN(C)Cc1ccccc1 | inactive
50 | Cn1c(SCC(=O)Nc2cccnc2Cl)nc2ccccc21 | inactive

Row | SMILES | Potency
51 | COc1ccc(NS(=O)(=O)c2cc(NC(=O)c3cnccn3)ccc2OC)cc1Br | inconclusive [cytotoxic, partial curve]
52 | CC(=O)C(C(C)=O)c1c(Cl)c(O)c(O)c2c(C(=O)c3ccccc3)coc12 | active: 11.6 µM
53 | Cc1onc(-c2c(F)cccc2Cl)c1C(=O)Nc1nc2c(s1)CCCC2 | inconclusive [cytotoxic, single point]
54 | COc1ccc(NC(=O)C2Cc3c(-c4cccc(C(N)=O)c4)ccnc3O2)cc1 (stereo not given) | active: 14.6 µM
55 | CC(C)Oc1ccc(CNC(=O)Cn2ccc3cc(S(=O)(=O)N4CCCC4)ccc32)cc1 | inactive
56 | CC(=O)Cc1nsc(NC(=O)c2ccc(-c3cc(C(F)(F)F)ccc3Cl)o2)n1 | active: 11.2 µM
57 | Cc1cc(NC(=O)CCC(=O)N(CC(=O)NC2CCCC2)c2ccc(Cl)cc2)no1 | inactive
58 | O=C(N/N=C/c1ccncc1)c1cc(-c2ccc(Br)s2)[nH]n1 | inconclusive [cytotoxic, single point]
59 | CC(=O)Oc1c(Cl)cc(N(C(C)=O)S(=O)(=O)c2ccccc2)c2ccccc12 | inconclusive [cytotoxic, single point]
60 | CC1CN(C(C)C)C(=S)NC1=O (stereo not given) | inactive
61 | CCCCc1c(-c2ccc(F)cc2)ncn1CCc1ccccc1OC | inconclusive [cytotoxic, single point]
62 | CCC1CSC(Nc2ccc(C(=O)/C=C/c3ccc(Br)cc3)cc2)=N1 (stereo not given) | active: 18.4 µM
63 | O=C(CCNc1cccc(C(F)(F)F)c1)c1ccco1 | inconclusive [cytotoxic, single point]
64 | C/C(=N\NC(=O)c1ccc(OC2OCCOC2Oc2ccc(C(=O)N/N=C(\C)c3ccncc3)cc2)cc1)c1ccncc1 (stereo not given) | inconclusive [cytotoxic, single point]
65 | Cc1ccc(-c2noc(CSc3nnc(CCc4ccccc4)n3-c3ccccc3)n2)cc1 | inconclusive [cytotoxic, single point]
66 | O=c1cc(CCc2ccccc2)oc2cccc(O)c12 | inactive
67 | O=C(c1ccc(N2CCCC2=O)cc1)N1CCCCCC1 | inactive
68 | CN(Cc1cccnc1)C(=O)CCCc1c[nH]c2ccccc12 | inactive
69 | COc1cccc(N2CCN(C(=O)c3cc(C)oc3C)CC2)c1 | inconclusive [cytotoxic, single point]
70 | CCCCN1C(=O)C(=O)N(CC(=O)Nc2ccccc2C(=O)OCC)C1=O | inconclusive [cytotoxic, single point]
71 | COC(=O)c1ccccc1NC(=O)c1ccc(Cn2cc(Cl)cn2)o1 | active: 20.6 µM
72 | CCNC(=S)N(CCc1c(C)[nH]c2ccc(C)cc12)Cc1cccs1 | inconclusive [cytotoxic, single point]
73 | CCc1ccc(-c2nc(C(N)=O)c3[nH]c(=O)n(-c4ccccc4OC)c3n2)cc1 | inconclusive [cytotoxic, full curve]
74 | C/C(=N\NC(=O)C1CCCN(S(=O)(=O)c2ccccc2)C1)c1ccccn1 (stereo not given) | inconclusive [cytotoxic, partial curve]
75 | CN(C)c1ccc(N/C=C/C(=O)c2ccccc2)cc1 | inconclusive [cytotoxic, single point]
